Assay results reported in the supplement of paper PMC3334620.
In all, about 33,000 sequences were measured (“E-score (-0.5 to 0.5)”: median about -0.043, highest 2% from about 0.37 on). The list shows a part of the results.

target: T1, Upc2 (UniProt Q12151); test: PBM E-score (8-mer binding enrichment) (E-score (-0.5 to 0.5)); higher = stronger / more preferred TF binding; most listed sequences are background and not binding sites; conditions: protein concentration: 200 nM; construct: GST-full length
T1 sequence: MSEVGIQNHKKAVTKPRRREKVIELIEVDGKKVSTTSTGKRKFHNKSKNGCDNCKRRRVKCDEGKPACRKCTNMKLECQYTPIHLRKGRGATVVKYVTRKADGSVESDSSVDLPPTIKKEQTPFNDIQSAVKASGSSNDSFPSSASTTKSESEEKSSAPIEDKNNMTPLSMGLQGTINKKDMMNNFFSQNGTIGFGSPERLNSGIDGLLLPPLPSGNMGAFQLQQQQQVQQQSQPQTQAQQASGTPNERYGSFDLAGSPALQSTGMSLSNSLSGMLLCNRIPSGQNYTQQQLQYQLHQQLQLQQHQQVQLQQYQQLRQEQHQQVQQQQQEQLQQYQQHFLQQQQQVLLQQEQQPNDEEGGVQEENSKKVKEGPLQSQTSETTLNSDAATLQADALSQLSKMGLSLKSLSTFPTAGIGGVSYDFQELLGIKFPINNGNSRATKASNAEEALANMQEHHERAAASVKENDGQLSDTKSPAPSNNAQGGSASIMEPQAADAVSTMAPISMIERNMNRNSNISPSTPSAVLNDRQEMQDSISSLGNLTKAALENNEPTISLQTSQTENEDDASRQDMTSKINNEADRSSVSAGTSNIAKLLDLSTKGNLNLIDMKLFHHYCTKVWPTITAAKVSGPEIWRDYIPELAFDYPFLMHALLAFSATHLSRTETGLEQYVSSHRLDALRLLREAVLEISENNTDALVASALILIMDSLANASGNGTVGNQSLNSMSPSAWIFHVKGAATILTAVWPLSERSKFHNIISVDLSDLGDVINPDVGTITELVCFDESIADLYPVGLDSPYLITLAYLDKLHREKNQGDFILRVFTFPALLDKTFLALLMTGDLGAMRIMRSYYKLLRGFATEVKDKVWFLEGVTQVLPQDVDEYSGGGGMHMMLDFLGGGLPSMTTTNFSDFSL
Procedure, shortened: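 GST-tagged yeast TFs (full-length or DNA-binding domain) were made by PURExpress in vitro transcription/translation and applied at about 100-200 nM to universal all-10-mer Agilent arrays. The arrays were made double-stranded by primer extension, on fresh or once-stripped slides. Bound protein was detected with fluorescent anti-GST, and scans were normalised with masliner. Each ungapped eight-base word, pooled with its reverse complement, received an E-score (modified Wilcoxon-Mann-Whitney statistic) from the Universal PBM Analysis Suite.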

| Sequence | PBM E-score |
| --- | --- |
| AGTTCGAA | 0.0491 |
| CTTCGGTA | 0.125 |
| GCCTCTTA | 0.183 |
| GTAACAAA | 0.0869 |
| CACTGACC | -0.0556 |
| CTCTCAAC | -0.0848 |
| AGAGGATG | -0.191 |
| AACACAGG | -0.2 |
| ACCTCACG | -0.295 |
| GGTATCGA | 0.0592 |
| CTAATGCC | -0.00798 |
| CGTGAACC | -0.0604 |
| ACCGTATC | 0.345 |
| CATATAAG | 0.17 |
| CGATTACC | 0.128 |
| AGGCTAAG | -0.179 |
| AGACAAAT | -0.0378 |
| CTTCGCTA | 0.169 |
| TCAGAGAA | -0.213 |
| ACTTCCAT | 0.044 |
| GGGTCCTA | -0.201 |
| CATTGACC | 0.0125 |
| CGACAACA | 0.131 |
| ATTTTCCA | 0.0183 |
| GGTCGCAC | 0.138 |

| Sequence | PBM E-score |
| --- | --- |
| CTTCATAA | -0.121 |
| CCACTAGG | -0.397 |
| AATACCGC | -0.131 |
| TGCCCGAA | 0.0305 |
| GAGAAGCC | -0.171 |
| ACGCCTTA | 0.132 |
| GTATCCGA | 0.287 |
| CCACGGAA | 0.00559 |
| GAAGTCGC | 0.053 |
| GAGCTACC | -0.156 |
| GCTGTGCC | -0.233 |
| CCAATAAG | -0.2 |
| CAGCCACG | -0.14 |
| ACAAGGCA | -0.202 |
| ACTACCTG | -0.089 |
| GAGTGGCA | -0.0426 |
| AGTCTCAA | -0.0862 |
| GTACACAC | 0.288 |
| AGAAATCC | 0.00939 |
| AGGGATTA | 0.0294 |
| AATCCGTC | -0.0144 |
| CGAAGAAG | 0.085 |
| GAACGGGA | 0.238 |
| ACCCAAGC | -0.119 |
| CCTGAGCA | -0.117 |

| Sequence | PBM E-score |
| --- | --- |
| ACTACCAC | -0.154 |
| CCTTGGAA | -0.148 |
| GTGGCGGA | -0.285 |
| AGGATACA | -0.167 |
| AAACTCTT | -0.195 |
| GACAAGGA | -0.122 |
| CTAGTGCC | -0.219 |
| ACCTGTCG | 0.158 |
| CGTCGAAG | -0.0248 |
| CGTCCATC | -0.0612 |
| CGAAGATC | 0.246 |
| AGTGGTAA | -0.0195 |
| ATTGAGAA | 0.0824 |
| ACCGTCGA | -0.191 |
| GGCGTAAA | 0.279 |
| TGGGCCCA | 0.0916 |
| TAACCAAA | -0.00385 |
| AAAAGGCT | -0.229 |
| ACTAGGTA | -0.0859 |
| CCGACATA | -0.0313 |
| TGACTAAA | -0.133 |
| CTAAATAC | 0.132 |
| CTTGATGA | -0.0898 |
| CTCAGGAC | -0.101 |
| AACTACAT | -0.257 |

| Sequence | PBM E-score |
| --- | --- |
| ACTTCTAT | 0.0241 |
| CCTCCAGG | -0.243 |
| CACAAACC | -0.0575 |
| ATGCACGA | -0.0149 |
| GCCAAAAA | -0.209 |
| ATAAACAC | -0.033 |
| CGCCGATC | -0.0454 |
| TGGGACAA | -0.333 |
| ACGAACAG | 0.314 |
| ACATTCCT | -0.0475 |
| CATCTCTA | 0.017 |
| AAGAACCG | 0.012 |
| GACCGCAA | 0.187 |
| GCGGTTCA | -0.208 |
| GCAACCTA | -0.195 |
| CCCCCAAG | -0.242 |
| AGCCGAAC | 0.0166 |
| CCAGCACG | -0.0471 |
| AAGACATT | -0.101 |
| GATCGGTA | 0.188 |
| ACGATCTG | 0.273 |
| AGCAGGGC | -0.0834 |
| GCACCGCC | -0.115 |
| GCATGAAA | 0.0207 |
| CGCCCTGA | -0.0614 |

| Sequence | PBM E-score |
| --- | --- |
| CTGGTATC | -0.187 |
| GAGCTCCA | -0.188 |
| ATAATTAA | 0.122 |
| AGCATCAC | -0.142 |
| ACAAGTGT | -0.0749 |
| ACATGGAG | -0.162 |
| CCCAGTGC | 0.00171 |
| GATCGAAC | 0.113 |
| CAAGTTTA | 0.0199 |
| GCGGTTAC | 0.0818 |
| GTTTAGTA | 0.315 |
| AAGCTCTG | -0.266 |
| CTAAGCAA | -0.0969 |
| ACGAATTG | 0.266 |
| GTTTTGCA | -0.014 |
| AGTTTCTG | -0.125 |
| GAGCTTCA | -0.132 |
| CGAACGAA | 0.398 |
| AGCTCTCA | -0.214 |
| GGCCTTGA | -0.122 |
| TCTTTCAA | -0.0554 |
| CTTTGACC | 0.0273 |
| ACGTACCA | 0.255 |
| AATCTCTC | -0.0336 |
| GCATCGGA | -0.0207 |

| Sequence | PBM E-score |
| --- | --- |
| CGGATTCA | -0.0988 |
| GCTGAGGA | -0.145 |
| ACGGTTAG | 0.0076 |
| TAACAGCA | 0.0585 |
| AGGAATGC | 0.0204 |
| AATCCGAG | 0.158 |
| AACAGCAC | 0.0284 |
| ATAGCAGC | -0.337 |
| AAATAAGT | 0.0268 |
| ACCCTAGC | -0.144 |
| ATACATAC | 0.153 |
| GTAGTGGA | -0.0616 |
| ACCACTCG | 0.178 |
| CCCTCCTC | -0.082 |
| AGTCTTTG | -0.0249 |
| CTCATTTC | -0.143 |
| CGTGAACA | 0.11 |
| AATTAGGC | 0.0573 |
| ATATGTGC | -0.0742 |
| ATTTGCCC | -0.185 |
| ACTGGTAC | 0.164 |
| CGTCATGA | -0.0226 |
| ATACCGAG | 0.0941 |
| CATAGAGG | -0.151 |
| GCGGGTAA | -0.117 |

| Sequence | PBM E-score |
| --- | --- |
| AGCATTAT | -0.183 |
| GGCCGTAC | 0.389 |
| ACCCGAAA | 0.0519 |
| ACGAGGTC | 0.371 |
| GGGTATTA | 0.0508 |
| ACAAACAA | -0.0593 |
| CTGCATCC | -0.137 |
| ATATATTC | 0.148 |
| CAGTCATC | -0.152 |
| CCACCTGC | -0.125 |
| CCTTTCTC | -0.0694 |
| CGTACCGA | 0.398 |
| TAGGTCAA | -0.0492 |
| CGTAATAG | 0.266 |
| ATAGTCTA | 0.0679 |
| TCCGTCCA | -0.148 |
| CCTAATTA | -0.183 |
| CCCCCATC | -0.166 |
| GTCCTTAA | 0.0114 |
| AATCCGGC | -0.144 |
| AGTTGCAC | -0.186 |
| ATGTTAGC | -0.106 |
| ACTCAATC | -0.0344 |
| TAGTTAGA | -0.0336 |
| CAGGTGCG | -0.0712 |

| Sequence | PBM E-score |
| --- | --- |
| AGTCGTGC | -0.127 |
| AGGTCCCC | -0.328 |
| ACTGGCTC | -0.184 |
| AATCAACG | 0.128 |
| ACGTTCGC | 0.14 |
| CCATGAAC | -0.082 |
| AGAACGGC | 0.0546 |
| TATGGACA | -0.00055 |
| ATAGCGTC | -0.0111 |
| GCCACGCC | -0.196 |
| CACTTCGA | 0.11 |
| CTACAGGC | -0.151 |
| GGTTGTAC | 0.154 |
| CAAAAATA | 0.0741 |
| ATGAACGC | 0.14 |
| GTCGAAAC | -0.123 |
| TCCTATAA | -0.149 |
| CAATAATG | -0.0173 |
| TGAAGAAA | -0.193 |
| GAAGACAA | 0.0592 |
| GCCTAGAA | -0.0569 |
| CTATCCGA | 0.222 |
| CAGACTGG | -0.239 |
| CCACATCC | -0.124 |
| CCAAATCC | -0.248 |

| Sequence | PBM E-score |
| --- | --- |
| ACATTTCC | -0.00644 |
| GCGAGGGA | 0.0825 |
| ACATGTTG | -0.0106 |
| GATTCAGC | 0.0295 |
| CCTCACAC | -0.0488 |
| ACTACTGC | 0.07 |
| CGAGCTCC | 0.291 |
| GTTCCTAA | 0.0853 |
| ACATTGAC | -0.0206 |
| CCAACTCA | -0.0745 |
| GCATGAGA | -0.175 |
| GGCACAAC | -0.279 |
| CAAAGGTA | 0.047 |
| TGTTCCAA | -0.134 |
| CCGCAGCG | -0.139 |
| GAACCGTA | 0.269 |
| GCGTAAAC | 0.352 |
| CTCGCTGA | -0.136 |
| ACTTTGGC | 0.0736 |
